The source of these data is PMC11494340, “High-throughput screening for small-molecule stabilizers of misfolded glucocerebrosidase in Gaucher disease and Parkinson’s disease” (Proceedings of the National Academy of Sciences of the …, 2024).

pEC50: −log10 of the molar value. Read-outs that look alike come from different tables or passages of the source.

The experiment concerns the target T1, HiBiT-GCase-L444P (Homo sapiens, UniProt P04062, L483P).
T1 sequence (P04062 40-536 L483P): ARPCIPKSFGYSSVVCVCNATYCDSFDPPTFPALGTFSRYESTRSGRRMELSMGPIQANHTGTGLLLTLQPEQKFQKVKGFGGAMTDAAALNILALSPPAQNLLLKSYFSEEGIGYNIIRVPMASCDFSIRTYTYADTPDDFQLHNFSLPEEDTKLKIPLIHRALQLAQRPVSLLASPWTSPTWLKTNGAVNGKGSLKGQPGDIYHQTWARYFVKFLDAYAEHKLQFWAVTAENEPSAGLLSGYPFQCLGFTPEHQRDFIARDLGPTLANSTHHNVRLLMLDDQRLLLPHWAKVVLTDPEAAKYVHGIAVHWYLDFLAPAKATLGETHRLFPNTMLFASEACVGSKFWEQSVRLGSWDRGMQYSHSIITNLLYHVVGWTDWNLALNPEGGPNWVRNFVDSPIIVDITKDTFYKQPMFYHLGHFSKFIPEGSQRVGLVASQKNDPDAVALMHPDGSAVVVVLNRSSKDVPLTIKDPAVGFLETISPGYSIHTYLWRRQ
On the set-up: AUC: unit not given beside the values. As to conditions: for CC-v2: qHTS curve class. A general note: In qHTS, concentration-response curves come from the screen itself.

Where [1] appears, read: follow-up screen, 24 h, relative to DMSO control.
Setting [2] is: follow-up screen, 24 h, listed as NCGC00168085-22.
The mark [3] stands for this setting: normalized to DMSO, 100% efficacy reflects a doubling of GCase levels.
[4] abbreviates: follow-up screen, 24 h, listed as NCGC00263155-07.

As to `CCCNC(=O)CNC(=O)c1ccccc1OCC(=O)Nc1ccc(Br)cc1` [NCGC00182268-01], under “follow-up screen, 24 h”, the AC50 (in general, the midpoint of the concentration-response curve, whichever way the signal moves) was 89100 nM; the AUC turned out to be 55.2; the CC-v2 stood at 2.1. The same compound showed an Efficacy under setting [1] of 115.
Where the note is “follow-up screen, 24 h”, `Nc1cc(F)ccc1NC(=O)c1ccc(CNC(=O)/C=C/c2cccnc2)cc1` [NCGC00685364-01, Tucidinostat] gave an AC50 of 16800 nM, an AUC of 276.4 and a CC-v2 of 1.1.
Take `C[C@@H]1O[C@@H](OC2CCC3(C=O)C(CCC4C3CCC3(C)C(C5=CC(=O)OC5)C(O)CC43O)C2)[C@H](O)[C@H](O)[C@H]1O[C@@H]1O[C@H](CO)[C@@H](O)[C@H](O)[C@H]1O` (stereo partly shown) [NCGC00380658-01]: for the setting “follow-up screen, 24 h”, the AC50 was found to be 2500 nM, the AUC stood at 104.8 and the CC-v2 was determined as 1.1. This compound displayed an Efficacy under setting [1] of 93.
For the compound `CC(=O)N1CCN(CCOc2ccc(C3CCN(C4=Nn5c(nnc5C(F)(F)F)CC4)CC3)cc2)CC1` [NCGC00386284-02, AZD-3514], where the note is “follow-up screen, 24 h”, the concentration at half-maximal activity (AC50) amounted to 37600 nM, the AUC is 14.1 and the CC-v2 is 1.1.
Take `Cc1ccccc1C#Cc1ccc(CCC(=O)O)cc1` [NCGC00344089-02, TUG 424]: where the note is “follow-up screen, 24 h”, the activity was half-maximal at 33500 nM (AC50), the AUC came to 12.4 and the CC-v2 is recorded as 1.2. Under setting [1], this compound registered an Efficacy of 55.
Where the note is “follow-up screen, 24 h”, `O=C(/C=C/C#Cc1cccc(NS(=O)(=O)c2ccccc2)c1)NO` [NCGC00165855-06, Oxamflatin] gave an AC50 of 1100 nM, an AUC of 226.4 and a CC-v2 of 1.1. For the same compound, the Efficacy under setting [1] turned out to be 113.
`O=C(CCCCCCC(=O)Nc1ccccc1)NO` [NCGC00168085-05, Vorinostat (SAHA)]: the concentration at half-maximal activity (AC50) runs as follows: (follow-up screen, 24 h) 35500 nM; under setting [2], 3300 nM. The AUC reads like this: (follow-up screen, 24 h) 248.1; (follow-up screen, 24 h, listed as NCGC00168085-13) 404.7; under setting [2], 476.8. Besides, the Efficacy by setting is: under setting [1], 658; (follow-up screen, 24 h, relative to DMSO control, listed as NCGC00168085-13) 340; (follow-up screen, 24 h, relative to DMSO control, listed as NCGC00168085-22) 356; under setting [3], 658%. The compound also had a CC-v2 (follow-up screen, 24 h) of 1.1.
With `C=C1CN(Cc2ccc(C(=O)Nc3ccccc3N)cc2)C(=O)c2ccccc21` [NCGC00480746-01, MI 192], under “follow-up screen, 24 h”, the AC50 worked out at 1700 nM, the AUC stood at 200.3 and the CC-v2 is recorded as 1.1. The Efficacy under setting [1] is on record as 117.
Take `CN(C(=O)CNC(=O)c1ccccc1OCC(=O)Nc1ccc(Br)cc1)c1ccccc1` [NCGC00241605-03]: where the note is “follow-up screen, 24 h”, the concentration at half-maximal activity (AC50) was determined as 31600 nM, the AUC was 7.4 and the CC-v2 worked out at 1.2. This compound also gave an Efficacy under setting [1] of 56.
Where the note is “follow-up screen, 24 h”, `CC[C@H](C)[C@H](NC(=O)[C@H]([C@@H](C)CC)N(C)C(C)=O)C(=O)N[C@H](C(=O)N[C@@H](CC(C)C)C(=O)[C@@]1(C)CO1)[C@@H](C)O` [NCGC00389337-01, Epoxomicin] came in with a half-maximal activity concentration (AC50) of 21.1 nM, an AUC of 292.6 and a CC-v2 of 1.2. For the setting “follow-up screen, 24 h, n = 3”, the pEC50 (usually the negative decadic logarithm of the EC50, by convention in mol/L) is 7.68. Besides, the Efficacy under setting [3] came to 73.2%.
For the setting “follow-up screen, 24 h”, `O=C(/C=C/c1cccc(S(=O)(=O)Nc2ccccc2)c1)NO` [NCGC00263155-09, Belinostat] came in with an AC50 of 900 nM, an AUC of 806.6 and a CC-v2 of 1.1. Further, under setting [4], the AC50 came to 1700 nM and the AUC is 577.3.
For the setting “follow-up screen, 24 h”, `C=CC(=O)N1CCN(C(=O)CNc2cc(I)c(Cl)cc2O)CC1` [NCGC00386405-01, K-Ras(G12C) inhibitor 12] showed an AC50 of 26600 nM, an AUC of 134.6 and a CC-v2 of 2.1. Under setting [1], this compound displayed an Efficacy of 180.
As to `O=C(NO)c1cnc(N2CCN(S(=O)(=O)c3ccc4ccccc4c3)CC2)nc1` [NCGC00351481-03, JNJ16241199], where the note is “follow-up screen, 24 h”, the activity was half-maximal at 1500 nM (AC50), the AUC turned out to be 583.1 and the CC-v2 turned out to be 1.1. In addition, the Efficacy under setting [1] is reported as 335.
